In article PMC5836133:
Some of the results follow. At the low end of the ranking the order means little.

test system: T1, GST-NbGlk1(82-244); assay: protein-binding microarray; settings: NbGlk1 is a Golden2-like transcription factor of Nicotiana benthamiana; high values mean tight binding; most listed sequences are background and not binding sites; double strand, one strand shown;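 further: rank-based score ranging −0.5 to +0.5 with E above 0.45 taken as significant binding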
T1 sequence: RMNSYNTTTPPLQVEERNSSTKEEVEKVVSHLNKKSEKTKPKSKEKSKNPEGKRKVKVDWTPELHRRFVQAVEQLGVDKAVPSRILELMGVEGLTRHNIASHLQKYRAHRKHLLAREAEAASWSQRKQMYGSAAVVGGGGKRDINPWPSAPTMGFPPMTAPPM

Sequence	binding signal
AACAAGGG	-0.0574 E-score
AACTAGGC	0.0165 E-score
ACAGCTCG	-0.0196 E-score
AGTAACGG	-0.192 E-score
CAAATCAC	0.272 E-score
ATGTGTCC	-0.128 E-score
AGTTTCTC	-0.118 E-score
AAACTCAT	-0.0877 E-score
CACGTGTC	-0.129 E-score
ACCAGATG	0.00702 E-score
ACCTGACC	-0.226 E-score
AACAGGTC	-0.131 E-score
ACAAGCCG	-0.275 E-score
AGCGAGCG	-0.114 E-score
CAGCGGGG	-0.223 E-score
AACCGGAC	-0.223 E-score
ACACACTG	-0.174 E-score
ACGTTCCA	-0.0429 E-score
AGAACTCA	-0.0434 E-score
CAGATCGA	0.0635 E-score
AGTATAGA	0.16 E-score
AATGATAA	0.0774 E-score
AGACTACT	-0.000398 E-score
ATAGGTCC	-0.174 E-score
CAAAAAGC	-0.126 E-score

Sequence	binding signal
ACTAGTCG	-0.15 E-score
AAGGCCAC	-0.202 E-score
AATAAAAC	0.013 E-score
ATACGTTC	0.0917 E-score
AATTAGTG	0.133 E-score
AGGACGAC	-0.193 E-score
ACTACCTC	-0.205 E-score
ACACAGCC	-0.163 E-score
ATAGCCGA	0.0886 E-score
AGCCTGGA	-0.159 E-score
AAGGGGCC	-0.386 E-score
AGGAGGAA	-0.0358 E-score
AACCATCT	-0.0747 E-score
AGACCACC	-0.371 E-score
ACCCCAGT	-0.146 E-score
CACTCGCA	0.00857 E-score
ATAACTCC	-0.0541 E-score
ATTGCTTA	0.199 E-score
AGGGACAT	-0.144 E-score
AGGTCGCC	-0.217 E-score
AGTTTGTA	0.0146 E-score
AGGATTAT	0.31 E-score
AGGTGTTA	0.0108 E-score
ACTTGAAG	-0.0448 E-score
ACTTGTCA	-0.136 E-score

Sequence	binding signal
AATGCGAA	0.0515 E-score
AGGCCATC	-0.192 E-score
AACGACTG	-0.116 E-score
CACTTAGC	-0.204 E-score
AACCCCTC	-0.099 E-score
ATTTCTTA	0.314 E-score
ACATGCTC	-0.226 E-score
AAATTCTT	0.191 E-score
AATCGATT	0.353 E-score
CAACCGAA	-0.0389 E-score
AAGTCACA	-0.131 E-score
AGGACTAT	-0.109 E-score
AGGAGTAG	-0.174 E-score
ACGGTCGA	-0.131 E-score
AAGGTTAG	-0.14 E-score
AATCAAGT	0.233 E-score
AGTCGACC	-0.233 E-score
AAAGACTA	-0.0211 E-score
ATTAAGCC	-0.152 E-score
AGGTACAC	-0.145 E-score
AGTATTCC	0.00935 E-score
ATGCCAAA	-0.0864 E-score
CAAGATTA	0.314 E-score
AGGTTAGC	-0.31 E-score
AACCGTGT	-0.088 E-score

Sequence	binding signal
CAAGACCC	-0.279 E-score
ACGGGGAG	-0.163 E-score
AGATCCTA	0.314 E-score
ATGCATGG	-0.115 E-score
AAACGACT	0.0491 E-score
CACAGATC	0.214 E-score
AGTATGCG	-0.0409 E-score
AGTACACG	-0.16 E-score
AAACGGAA	0.0282 E-score
ACATAAAC	-0.0325 E-score
AGAGGGTG	-0.222 E-score
ACCGGCTC	-0.312 E-score
AATGCTGA	0.0577 E-score
CACAACCC	-0.0837 E-score
AAATTCCT	0.176 E-score
AGGGCGCG	-0.0419 E-score
ACGTGTAT	-0.0169 E-score
ATAGCCAT	-0.0482 E-score
ACAGTCAA	0.0572 E-score
AACGAGTA	-0.0344 E-score
AGTTTGCC	-0.0988 E-score
AGAACCTG	-0.173 E-score
AGCACCGA	-0.137 E-score
CAAGCTAA	-0.145 E-score
ACGGTTAG	-0.184 E-score

Sequence	binding signal
AACCCGAA	0.0302 E-score
ACTAGCCG	-0.128 E-score
AACAGAGA	-0.0323 E-score
AGACCGAT	-0.0375 E-score
AGCCGGCC	-0.394 E-score
CACGACGC	-0.189 E-score
ACTGCGCT	-0.0116 E-score
AACTAGGG	-0.165 E-score
AAATGTCA	0.113 E-score
CAGAGAGA	-0.0859 E-score
AACACATC	-0.0668 E-score
ATAGTGAC	-0.0982 E-score
ACTCTTAG	-0.135 E-score
AACTGATC	0.0627 E-score
AATTGGCT	-0.0911 E-score
CACCGCCA	-0.106 E-score
ACTATGAG	-0.151 E-score
AGGCACCG	-0.303 E-score
ACGCAAGA	0.00406 E-score
AAACGGGA	-0.0376 E-score
CAGCGAAC	-0.132 E-score
AAGGTGGT	-0.204 E-score
AGGGAGCA	-0.223 E-score
AACGCTGG	-0.14 E-score
AGAGGGCA	-0.211 E-score

Sequence	binding signal
AACGCCGA	-0.13 E-score
AAATCTGA	0.469 E-score
AAAAAACT	0.0615 E-score
AGCTTGAG	-0.18 E-score
ACAAGCAC	-0.11 E-score
CAGAATCG	0.33 E-score
AGGCACTA	-0.177 E-score
AGCGGAGC	-0.124 E-score
AGTTGGCG	-0.182 E-score
CAAGTCGA	-0.155 E-score
ATATCGAT	0.347 E-score
AAGACTCC	-0.137 E-score
AAGCTCAG	-0.131 E-score
AGTTGGGG	-0.122 E-score
ACACTGTG	-0.091 E-score
ACCACCGT	-0.191 E-score
ATCATGGG	-0.0545 E-score
AAAGAGAT	0.27 E-score
AATGCGAG	0.00187 E-score
ACTCGCGA	0.169 E-score
AGGTATTA	-0.00782 E-score
AAATTTTA	0.24 E-score
AGCAAGAT	0.309 E-score
AAGCAGCG	-0.159 E-score
AATTCGCC	0.138 E-score

Sequence	binding signal
ATCCGACA	0.198 E-score
AGCGGAAA	0.0742 E-score
AATGCGGC	-0.137 E-score
AAGCCGAA	-0.0105 E-score
ATCTCGTG	0.357 E-score
ATCCAGCC	0.215 E-score
AACCCCCT	-0.371 E-score
AGAGTATC	0.319 E-score
ATCCTAGG	0.0855 E-score
AATGGAAT	0.152 E-score
ACCCGCAG	-0.129 E-score
AGCATCAC	0.0464 E-score
AGTGTGGA	0.0588 E-score
ACGAAAGC	-0.235 E-score
AGCCGTAG	-0.195 E-score
AGCGATAG	-0.0969 E-score
AGTGCCAA	-0.2 E-score
ATGGCCGC	-0.216 E-score
AAATTGAT	0.178 E-score
AAACCCAA	-0.0425 E-score
AGAATAGA	0.0813 E-score
ATTGGCAA	0.0262 E-score
ACTAGAGT	-0.0548 E-score
ACACTACG	-0.0876 E-score
AGCCCTAA	-0.222 E-score

Sequence	binding signal
ACCCCTAA	-0.0998 E-score
ATTACGCA	0.355 E-score
AAGTGATC	0.0531 E-score
ACGTTATA	0.154 E-score
ATAACAGA	0.201 E-score
ACTCAAGA	0.0654 E-score
AGTTAGGG	-0.17 E-score
AAAAATAT	0.3 E-score
ATGTCCGA	-0.0812 E-score
ACGAGGCA	-0.124 E-score
ATCTAGTC	0.251 E-score
AATCGCTC	0.133 E-score
AATGCCGT	-0.0641 E-score
AGTTAACC	-0.154 E-score
AAGGCGAG	-0.216 E-score
AGTTCGCG	-0.113 E-score
AACTTCGG	-0.222 E-score
CACTGTCA	-0.065 E-score
CACCGCTC	-0.204 E-score
AATCGGAT	0.357 E-score
AATCGCAG	0.224 E-score
AGGACCTA	-0.103 E-score
AGAATGAA	-0.0682 E-score
AGAAATAC	0.117 E-score
ACGTCTGA	-0.146 E-score

Sequence	binding signal
ATGATGGA	0.0836 E-score
AGCAGAAT	0.255 E-score
ACAATCCG	0.334 E-score
AGGGCTTC	-0.32 E-score
ATAAGTGC	0.0522 E-score
CACTCCAC	-0.121 E-score
AAGTCACT	-0.158 E-score
ACACAACG	0.0492 E-score
CAATCCAA	0.298 E-score
ATACGCAC	0.211 E-score
ATGGGCGG	-0.145 E-score
ACTCTTCT	-0.113 E-score
CACGAATG	-0.016 E-score
AGAAAACT	-0.205 E-score
AGATCGAC	0.113 E-score
ATTCAACG	0.0303 E-score
AAGCTATA	0.0749 E-score
AACTTGCG	-0.0258 E-score
AGGGCTCA	-0.317 E-score
